# From PubChem BioAssay AID488969 (Vanderbilt High Throughput Screening Facility, 2010)
# Over roughly 110,000 compounds, “z-score” has its median near -0.1; the highest 2% begin near 2. The list shows a part of the results.
# Target: Metabotropic glutamate receptor 8 (Rattus norvegicus) (UniProt P70579)
# Experiment: rat mGluR8 modulators via GIRK flux, primary screen, cell-based, thallium flux, HTS (AID 488969)
# Details: HEK293 rat mGluR8, GIRK (G protein-gated inwardly rectifying potassium channel) thallium flux, FluoZin2; at 10 µM; stronger effect = higher value; submaximal glutamate (EC20) added with thallium
# UniProt P70579, sequence (P70579 whole entry, looked up): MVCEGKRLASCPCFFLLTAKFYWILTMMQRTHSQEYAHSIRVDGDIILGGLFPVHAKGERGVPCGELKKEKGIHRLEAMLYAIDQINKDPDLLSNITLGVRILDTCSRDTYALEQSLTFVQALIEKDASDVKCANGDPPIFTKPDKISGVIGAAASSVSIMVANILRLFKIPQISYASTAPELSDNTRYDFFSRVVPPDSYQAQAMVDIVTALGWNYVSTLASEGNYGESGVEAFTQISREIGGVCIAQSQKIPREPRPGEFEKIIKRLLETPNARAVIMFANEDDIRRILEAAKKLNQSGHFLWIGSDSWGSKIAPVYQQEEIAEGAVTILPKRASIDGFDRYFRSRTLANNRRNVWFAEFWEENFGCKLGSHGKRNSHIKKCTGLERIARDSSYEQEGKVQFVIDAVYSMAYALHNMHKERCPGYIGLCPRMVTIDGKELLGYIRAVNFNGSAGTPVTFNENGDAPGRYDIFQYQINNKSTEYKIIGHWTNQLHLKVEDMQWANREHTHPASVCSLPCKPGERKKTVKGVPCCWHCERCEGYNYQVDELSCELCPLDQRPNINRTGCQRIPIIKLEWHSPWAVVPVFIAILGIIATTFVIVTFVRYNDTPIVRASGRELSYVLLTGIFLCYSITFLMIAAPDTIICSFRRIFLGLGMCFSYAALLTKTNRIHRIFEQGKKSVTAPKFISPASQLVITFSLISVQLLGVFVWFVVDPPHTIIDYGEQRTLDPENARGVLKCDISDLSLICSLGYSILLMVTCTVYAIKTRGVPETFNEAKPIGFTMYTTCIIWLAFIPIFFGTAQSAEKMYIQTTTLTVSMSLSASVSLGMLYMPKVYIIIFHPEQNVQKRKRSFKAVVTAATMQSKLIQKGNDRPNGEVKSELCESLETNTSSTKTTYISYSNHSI
row,Compound,z-score
1,COc1ccccc1CNc1cc(CSc2ccc(Cl)cc2)nc(C)n1,0.452
2,CC1(C)CC(=O)c2sc(NC(=O)Cc3cccs3)nc2C1,-0.0922
3,CNC(=O)Nc1ccccc1C(=O)NCc1ccccc1,-0.373
4,CCOc1ccc(C2C(C(=O)C3CC3)N3C=C(C#N)C=CC3C2(C#N)C#N)cc1 (centres undefined),-0.215
5,CN1CCN(C(=O)c2ccc(NS(=O)(=O)c3ccccc3)cc2)CC1,-0.282
6,Cc1cc(-c2ccccc2)c2c3c(c(-c4ccccc4)n2n1)c(=O)n(C)c(=O)n3C,-0.343
7,Cc1ccc(OS(=O)(=O)c2ccccc2)c(/C=N/N=C2\NC(=O)C(C)S2)c1 (centres undefined),-0.426
8,COc1ccc(OC)c(S(=O)(=O)N(C)CC(=O)N2CCN(c3cccc(Cl)c3)CC2)c1,-2.42
9,C/C(=N\NC(=O)CSCc1ccccc1Br)c1cccc([N+](=O)[O-])c1,-0.0139
10,O=C(NCCSCc1ccco1)c1ccc(CN2CCOCC2)cc1,-0.442
11,CCCCOC(=O)c1ccc(NC(=O)c2cnc3n(c2=O)CCS3)cc1,0.203
12,CCOC(=O)c1c(NC(=O)C(=O)N/N=C/c2ccc(OCC)cc2)sc2c1CCCCC2,-0.218
13,O=[N+]([O-])c1cc([N+](=O)[O-])c2cccnc2c1Oc1ccccc1O,0.0375
14,CCOC(=O)C(NC(=O)CC)(Nc1sc(C)c(CC)c1C#N)C(F)(F)F (centres undefined),0.00232
15,O=C(Nc1ccc(Cc2ccncc2)cc1)C1CCC(N2C(=O)C3C4C=CC(C5CC45)C3C2=O)CC1 (centres undefined),-0.424
16,Cn1sc(NC(=O)c2ccc(Cl)cc2)nc1=O,0.266
17,CCC(=O)Nc1nc2cc(OC)ccc2s1,1.81
18,CCOC(=O)c1cc2sc(C)cc2n1CC(=O)N(CC)CC,-0.063
19,O=C(CN1C(=O)NC2(CCCc3ccccc32)C1=O)Nc1cccc(S(=O)(=O)N2CCCCC2)c1 (centres undefined),-0.286
20,O=c1c2sc3nc(N4CCOCC4)c4c(c3c2nnn1Cc1ccccc1)CCCC4,-0.443
21,COc1ccc(-n2nccc2-c2nn(-c3cccc(OC)c3)c(=O)n(C)c2=O)cc1,-0.177
22,CN(Cc1ccccc1)C(=O)Nc1ccccc1,-0.205
23,CCOc1ccc(C(=O)Nc2ccc3c(c2)OCCO3)cc1OC,-0.705

row,Compound,z-score
1,CCOc1nc(NC(C)C)nc(NC(C)C)n1,-0.0254
2,Cc1cccc(CS(=O)(=O)Cc2ccc(C(=O)NCc3ccco3)o2)c1,0.36
3,CCOc1ccc(C2=Nc3ccccc3C(c3ccc(N4CCOCC4)cc3)=NN2)cc1,0.262
4,CN1C(=O)CC(c2ccco2)Sc2ccccc21 (centres undefined),0.571
5,COc1ccc(NC(=O)ON=C2c3ccccc3-c3ccccc32)cc1,-0.204
6,CCOC(=O)C1(C)NC(c2ccccc2F)C2C(=O)N(c3cccc(C(C)=O)c3)C(=O)C21 (centres undefined),0.00621
7,COC(=O)c1ccc(NC(=O)COC(=O)c2cccc3c(=O)c(C)c(-c4ccccc4)oc23)cc1,-0.521
8,Cc1cc(CCN2CCC(=O)NC2=O)ccc1OC(C)C,-0.169
9,COc1cc(Br)c(C(C)NC(=O)c2cccc(Br)c2)cc1OC (centres undefined),-0.249
10,Cn1c(C(=O)Nc2ccc3c(c2)OCCO3)cc2c(=O)n(C)c3ccccc3c21,-1.24
11,O=C1CCc2cc(S(=O)(=O)N3CCN(c4ccccc4F)CC3)ccc2N1,0.0515
12,CC1(C)CC2CC(C)(CN2S(=O)(=O)c2ccc(C(=O)Nc3cccc(S(=O)(=O)N4CCOCC4)c3)cc2)C1 (centres undefined),0.167
13,CCCN1Cc2cccc(C(=O)NC(C)c3cccs3)c2C1=O (centres undefined),-1.53
14,O=S(=O)(NCCSc1nnc(-c2ccco2)n1-c1ccccc1)c1ccccc1,-1.33
15,Cn1c(Oc2ccccc2NCc2cc(Br)ccc2O)cc(=O)n(C)c1=O,-0.0923
16,COc1ccc(N2CCN(C(=O)c3ccc(Oc4ccc(C(F)(F)F)cn4)cc3)CC2)cc1,0.0329
17,COc1ccc(CNC(=O)c2cc3c(=O)n4ccccc4nc3n(Cc3cccnc3)c2=N)cc1,0.325
18,COc1ccc(C)cc1S(=O)(=O)N(CC(=O)N1CCOCC1)Cc1ccccc1,-0.348
19,O=C(COC(=O)C1CCN(S(=O)(=O)c2ccc3c(c2)OCCO3)CC1)Nc1cccc2ccccc12,-0.122
20,C=CCc1cccc2cc(C(=O)N(CC)CC)c(=O)oc12,0.119
21,Cc1cc(C)cc(CC2CC(=O)N(c3ccc(Cl)cn3)C2=O)c1 (centres undefined),-0.0948
22,Cc1ccc(Cl)cc1NC(=O)CC1NCCNC1=O (centres undefined),0.0248
23,COc1ccccc1NC(=O)CCc1c(C)[nH]c(=O)c(C#N)c1C,0.136

row,Compound,z-score
1,O=c1c2cn[nH]c2[nH]c(=S)n1-c1ccccc1F,0.188
2,CC(=O)NCCN1C(=O)C2C3c4ccccc4C(c4ccccc43)C2C1=O (centres undefined),-0.191
3,CC1(C)C(c2cccs2)=[N+]([O-])C2(CCCCC/C2=N\O)N1O (centres undefined),0.245
4,O=C(CCn1c(=O)sc2ccccc21)Nc1nc2ccccc2s1,-0.943
5,O=C(Cc1ccccc1)NCCc1ccc(Cl)cc1Cl,0.107
6,CC1=CS/C(=C(/C#N)C(=O)NCc2ccco2)N1c1ccccc1,-0.559
7,C=CCn1c(COc2ccccc2)nnc1SCC(=O)NCC(=O)OCC,0.856
8,O=c1c2ccccc2nc(SCc2cn3ccsc3n2)n1-c1ccccc1,-2.57
9,O=C(CCn1nnc(-c2cccs2)n1)NC1CCCCC1,-0.311
10,CCCC(c1nnnn1Cc1ccco1)N1CCN(C(=O)c2ccco2)CC1 (centres undefined),-0.0404
11,CC12C(=O)N(c3ccc(C(=O)N4CCOCC4)cc3)C(=O)C1C1c3ccccc3C2c2ccccc21 (centres undefined),-0.236
12,O=C(C1CCCCC1)N1CCC(c2nc3ccccc3[nH]2)CC1,-0.166
13,Cc1cc(-c2ccccc2)nc(Cl)c1C#N,-0.108
14,O=c1[nH]c(CCC2CCCC2)nc2ccccc12,-0.143
15,Cn1c(=O)n(C)c2cc(S(=O)(=O)NCCOCCO)ccc21,0.0941
16,CCn1c(CNc2ccc(OC)cc2)nnc1SCC(=O)Nc1ccc(F)cc1,-0.176
17,CNC(=O)c1cccn1-c1ccsc1C(=O)OC,-0.114
18,COc1ccc(S(=O)(=O)N2CCC(C(=O)Nc3ccc4c(c3)OCCO4)CC2)cc1OC,0.311
19,Cc1ccc(SCC(=O)NC(C)(C)C)cc1,0.0907
20,O=C(CN1C(=O)c2ccccc2C1=O)Nc1nc(-c2cccc([N+](=O)[O-])c2)cs1,-0.19
21,CCn1c(=O)c(C(=O)NCc2cccnc2)c(O)c2ccccc21,-0.286
22,CCCSc1nnc(C(C)C)n1N,0.266
23,Cc1ccc(C(=O)Nc2ccc3cn[nH]c3c2)cc1S(=O)(=O)N1CCCCC1,-0.657
